# Reference: the supplement of paper PMC8728848
# Some of the results follow.
# B1: LecB LY19 (Pseudomonas aeruginosa) (protein)
# chain: MATQGVFTLPANTQFGVTAFANSAGTQTVNVQVNNETVATFTGQSTNNGIIGSKVLNSGGGGKVQILVSVNGRSSDLVSAQVILANELNFALVGSEDSTDNDYNDAVVVINWPLG
# Key:
# Assay in all cases: glycan array binding signal (z-score within array); higher = stronger binding
# Conditions in all cases: glycan notation: IUPAC condensed, linker removed
# [1] = molecular target: Fuc(a1-3)GlcNAc
# Summary of the method: (§1)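 The binding signal is a Z-score computed within each array and averaged over linkers. Arrays of the same protein sequence at different concentrations or buffers were also averaged together. Data originate from 3228 arrays in the Consortium for Functional Glycomics database, kept only where the protein sequence was available.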
# [2] = molecular target: Fuc(a1-3)[Gal(b1-4)]Glc6S
# Summary of the method: as §1
# [3] = molecular target: Fuc(a1-3)[Gal(b1-4)]GlcNAc
# Summary of the method: as §1
# [4] = molecular target: Fuc(a1-3)[Gal(b1-4)]GlcNAc(b1-2)Man
# Summary of the method: as §1
# [5] = molecular target: Fuc(a1-3)[Gal(b1-4)]GlcNAc(b1-2)Man(a1-3)[Fuc(a1-3)[Gal(b1-4)]GlcNAc(b1-2)Man(a1-6)]Man(b1-4)GlcNAc(b1-4)GlcNAc
# Summary of the method: as §1
# [6] = molecular target: Fuc(a1-3)[Gal(b1-4)]GlcNAc(b1-2)Man(a1-3)[Fuc(a1-3)[Gal(b1-4)]GlcNAc(b1-2)Man(a1-6)]Man(b1-4)GlcNAc(b1-4)[Fuc(a1-6)]GlcNAc
# Summary of the method: as §1
# [7] = molecular target: Fuc(a1-3)[Gal(b1-4)]GlcNAc(b1-3)Gal(b1-3)[Fuc(a1-4)]GlcNAc
# Summary of the method: as §1
# [8] = molecular target: Fuc(a1-3)[Gal(b1-4)]GlcNAc(b1-3)Gal(b1-4)[Fuc(a1-3)]GlcNAc
# Summary of the method: as §1
# [9] = molecular target: Fuc(a1-3)[Gal(b1-4)]GlcNAc(b1-3)Gal(b1-4)[Fuc(a1-3)]GlcNAc(b1-3)Gal(b1-4)[Fuc(a1-3)]GlcNAc
# Summary of the method: as §1
# [10] = molecular target: Fuc(a1-3)[Gal(b1-4)]GlcNAc(b1-3)GalNAc
# Summary of the method: as §1
# [11] = molecular target: Fuc(a1-3)[Gal(b1-4)]GlcNAc(b1-6)GalNAc
# Summary of the method: as §1
# [12] = molecular target: Fuc(a1-3)[Gal(b1-4)]GlcNAc(b1-6)[Gal(b1-3)GlcNAc(b1-3)]Gal(b1-4)Glc
# Summary of the method: as §1
# [13] = molecular target: Fuc(a1-3)[Gal(b1-4)]GlcNAc6S
# Summary of the method: as §1
# [14] = molecular target: Fuc(a1-3)[Gal3S(b1-4)]Glc
# Summary of the method: as §1
# [15] = molecular target: Fuc(a1-3)[Gal3S(b1-4)]GlcNAc
# Summary of the method: as §1
# [16] = molecular target: Fuc(a1-3)[Gal3S(b1-4)]GlcNAc6S
# Summary of the method: as §1
# [17] = molecular target: Fuc(a1-3)[GalNAc(b1-4)]GlcNAc
# Summary of the method: as §1
# [18] = molecular target: Fuc(a1-3)[GalNAc(b1-4)]GlcNAc6S
# Summary of the method: as §1
# [19] = molecular target: Fuc(a1-4)GlcNAc
# Summary of the method: as §1
# [20] = molecular target: Fuc(b1-3)GlcNAc
# Summary of the method: as §1
# [21] = molecular target: Gal(a1-2)Gal
# Summary of the method: as §1
# [22] = molecular target: Gal(a1-3)Gal
# Summary of the method: as §1
# [23] = molecular target: Gal(a1-3)Gal(b1-3)GlcNAc
# Summary of the method: as §1
# [24] = molecular target: Gal(a1-3)Gal(b1-3)GlcNAc(b1-2)Man
# Summary of the method: as §1
# [25] = molecular target: Gal(a1-3)Gal(b1-3)GlcNAc(b1-2)Man(a1-3)[Gal(a1-3)Gal(b1-3)GlcNAc(b1-2)Man(a1-6)]Man(b1-4)GlcNAc(b1-4)GlcNAc
# Summary of the method: as §1
# [26] = molecular target: Gal(a1-3)Gal(b1-3)GlcNAc(b1-3)GalNAc
# Summary of the method: as §1
# [27] = molecular target: Gal(a1-3)Gal(b1-3)GlcNAc(b1-6)GalNAc
# Summary of the method: as §1
# [28] = molecular target: Gal(a1-3)Gal(b1-3)[Fuc(a1-4)]GlcNAc(b1-2)Man(a1-3)[Gal(a1-3)Gal(b1-3)[Fuc(a1-4)]GlcNAc(b1-2)Man(a1-6)]Man(b1-4)GlcNAc(b1-4)GlcNAc
# Summary of the method: as §1
# [29] = molecular target: Gal(a1-3)Gal(b1-4)Glc
# Summary of the method: as §1
# [30] = molecular target: Gal(a1-3)Gal(b1-4)GlcNAc
# Summary of the method: as §1
# [31] = molecular target: Gal(a1-3)Gal(b1-4)GlcNAc(b1-2)Man
# Summary of the method: as §1
# [32] = molecular target: Gal(a1-3)Gal(b1-4)GlcNAc(b1-2)Man(a1-3)[Gal(a1-3)Gal(b1-4)GlcNAc(b1-2)Man(a1-6)]Man(b1-4)GlcNAc(b1-4)GlcNAc
# Summary of the method: as §1
# [33] = molecular target: Gal(a1-3)Gal(b1-4)GlcNAc(b1-3)GalNAc
# Summary of the method: as §1
# [34] = molecular target: Gal(a1-3)Gal(b1-4)GlcNAc(b1-6)GalNAc
# Summary of the method: as §1
# [35] = molecular target: Gal(a1-3)Gal(b1-4)[Fuc(a1-3)]GlcNAc
# Summary of the method: as §1
# [36] = molecular target: Gal(a1-3)Gal(b1-4)[Fuc(a1-3)]GlcNAc(b1-2)Man(a1-3)[Gal(a1-3)Gal(b1-4)[Fuc(a1-3)]GlcNAc(b1-2)Man(a1-6)]Man(b1-4)GlcNAc(b1-4)GlcNAc
# Summary of the method: as §1
# [37] = molecular target: Gal(a1-3)GalNAc
# Summary of the method: as §1
# [38] = molecular target: Gal(a1-3)[Gal(a1-4)]Gal(b1-4)GlcNAc
# Summary of the method: as §1
# [39] = molecular target: Gal(a1-4)Gal(b1-3)GlcNAc(b1-2)Man(a1-3)[Gal(a1-4)Gal(b1-3)GlcNAc(b1-2)Man(a1-6)]Man(b1-4)GlcNAc(b1-4)GlcNAc
# Summary of the method: as §1
# [40] = molecular target: Gal(a1-4)Gal(b1-4)Glc
# Summary of the method: as §1
# [41] = molecular target: Gal(a1-4)Gal(b1-4)GlcNAc
# Summary of the method: as §1
# [42] = molecular target: Gal(a1-4)Gal(b1-4)GlcNAc(b1-2)Man(a1-3)[Gal(a1-4)Gal(b1-4)GlcNAc(b1-2)Man(a1-6)]Man(b1-4)GlcNAc(b1-4)GlcNAc
# Summary of the method: as §1
# [43] = molecular target: Gal(a1-4)Gal(b1-4)GlcNAc(b1-3)Gal(b1-4)Glc
# Summary of the method: as §1
# [44] = molecular target: Gal(a1-4)GlcNAc
# Summary of the method: as §1
# [45] = molecular target: Gal(a1-6)Glc
# Summary of the method: as §1
binder,measurement,setting,value
B1,glycan array binding signal (z-score),[1],2.1
same,glycan array binding signal (z-score),[2],-0.031
same,glycan array binding signal (z-score),[3],1.65
same,glycan array binding signal (z-score),[4],0.065
same,glycan array binding signal (z-score),[5],1.1
same,glycan array binding signal (z-score),[6],-0.153
same,glycan array binding signal (z-score),[7],0.312
same,glycan array binding signal (z-score),[8],1.83
same,glycan array binding signal (z-score),[9],2.77
same,glycan array binding signal (z-score),[10],0.487
same,glycan array binding signal (z-score),[11],-0.348
same,glycan array binding signal (z-score),[12],0.618
same,glycan array binding signal (z-score),[13],-0.4
same,glycan array binding signal (z-score),[14],0.602
same,glycan array binding signal (z-score),[15],0.777
same,glycan array binding signal (z-score),[16],0.766
same,glycan array binding signal (z-score),[17],1.08
same,glycan array binding signal (z-score),[18],1.09
same,glycan array binding signal (z-score),[19],2.24
same,glycan array binding signal (z-score),[20],0.465
same,glycan array binding signal (z-score),[21],-0.527
same,glycan array binding signal (z-score),[22],-0.538
same,glycan array binding signal (z-score),[23],-0.523
same,glycan array binding signal (z-score),[24],-0.556
same,glycan array binding signal (z-score),[25],0.397
same,glycan array binding signal (z-score),[26],-0.551
same,glycan array binding signal (z-score),[27],-0.549
same,glycan array binding signal (z-score),[28],1.36
same,glycan array binding signal (z-score),[29],-0.512
same,glycan array binding signal (z-score),[30],-0.541
same,glycan array binding signal (z-score),[31],-0.551
same,glycan array binding signal (z-score),[32],-0.522
same,glycan array binding signal (z-score),[33],-0.55
same,glycan array binding signal (z-score),[34],-0.456
same,glycan array binding signal (z-score),[35],0.633
same,glycan array binding signal (z-score),[36],1.37
same,glycan array binding signal (z-score),[37],-0.543
same,glycan array binding signal (z-score),[38],-0.55
same,glycan array binding signal (z-score),[39],-0.235
same,glycan array binding signal (z-score),[40],-0.53
same,glycan array binding signal (z-score),[41],-0.465
same,glycan array binding signal (z-score),[42],-0.53
same,glycan array binding signal (z-score),[43],-0.557
same,glycan array binding signal (z-score),[44],-0.546
same,glycan array binding signal (z-score),[45],-0.53
